The results in this text go back to PMC5700166.

This is a selection; strong and weak results do not stand in their true shares. The list includes weakly bound sequences.

The test deals with T1, GST-Nv-NF-kB (Cys allele) (UniProt E5G601).
T1 sequence: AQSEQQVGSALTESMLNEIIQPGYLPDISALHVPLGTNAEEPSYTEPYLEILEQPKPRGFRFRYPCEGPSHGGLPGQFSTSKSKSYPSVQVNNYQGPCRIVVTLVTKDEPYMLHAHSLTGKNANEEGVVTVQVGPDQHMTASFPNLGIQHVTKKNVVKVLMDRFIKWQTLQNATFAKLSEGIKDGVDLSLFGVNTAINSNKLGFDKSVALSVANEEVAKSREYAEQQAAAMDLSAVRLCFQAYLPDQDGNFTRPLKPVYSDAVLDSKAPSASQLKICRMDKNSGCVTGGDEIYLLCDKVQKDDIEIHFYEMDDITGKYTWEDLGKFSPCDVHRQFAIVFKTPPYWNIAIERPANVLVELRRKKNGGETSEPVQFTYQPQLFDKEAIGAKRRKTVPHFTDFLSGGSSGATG
The test can be described thus: protein-binding microarray (PBM). As to conditions: PBM: ~300 nM protein, 6 mM HEPES pH 7.8, 80 mM KCl, 0.5 mM EDTA, 0.5 mM EGTA, 6% glycerol, 35 ng/ul poly-dIdC, 1% milk, 1 h, room temperature; Ap Aiptasia and Nv Nematostella (sea anemones) / Co Capsaspora / Aq Amphimedon (sponge) / Dm Drosophila / Hu human; RHD is the Rel homology domain; high values mean tight binding; most listed sequences are background and not binding sites; double strand, one strand shown.
The sequence “CCGATTAACATCAGCTCTAACTGTGATGTTAATCGGGTCTTGATTCGCTTGACGCTGCTG” displayed a binding signal of -0.368 z-score.
The sequence “CCGATTAACATCAAAGGGAATTCTGATGTTAATCGGGTCTTGATTCGCTTGACGCTGCTG” showed a binding signal of 7.1 z-score.
Sequence “CCGATTAACATCACACTACATCGTGATGTTAATCGGGTCTTGATTCGCTTGACGCTGCTG” registered a binding signal of -0.285 z-score.
“CCGATTAACATCAGCGCAAGATATGATGTTAATCGGGTCTTGATTCGCTTGACGCTGCTG” had a binding signal of -0.378 z-score.
For “CCGATTAACATCACAACTCACATTGATGTTAATCGGGTCTTGATTCGCTTGACGCTGCTG” the value was -0.576 z-score; for “CCGATTAACATCAGGGAATTCCCTGATGTTAATCGGGTCTTGATTCGCTTGACGCTGCTG”, 12.7 z-score.
The sequence “CCGATTAACATCAACTAAATTCCTGATGTTAATCGGGTCTTGATTCGCTTGACGCTGCTG” showed a binding signal of -0.0331 z-score.
For “CCGATTAACATCAGTGATTAAGGTGATGTTAATCGGGTCTTGATTCGCTTGACGCTGCTG” the value was 0.429 z-score; for “CCGATTAACATCAGGAAATCTCCTGATGTTAATCGGGTCTTGATTCGCTTGACGCTGCTG”, 0.34 z-score.
As for “CCGATTAACATCAGTGGAAAGTATGATGTTAATCGGGTCTTGATTCGCTTGACGCTGCTG”, the binding signal stood at 0.0873 z-score.
As for “CCGATTAACATCATTGTTATGCTTGATGTTAATCGGGTCTTGATTCGCTTGACGCTGCTG”, the binding signal was -0.622 z-score.
“CCGATTAACATCACCAATTTTCCTGATGTTAATCGGGTCTTGATTCGCTTGACGCTGCTG” came in with a binding signal of 0.48 z-score.
For “CCGATTAACATCAGGCCGCCCGCTGATGTTAATCGGGTCTTGATTCGCTTGACGCTGCTG” the value was -0.34 z-score.
